Results as given in publication PMC5681660, “Reduced hepatitis B and D viral entry using clinically applied drugs as novel inhibitors of the bile acid transporter NTCP” (Scientific Reports, 2017).

molecular target: T1, human NTCP (Homo sapiens, UniProt Q14973); assay: Screening taurocholate uptake assay (96-well, [14C]taurocholate, 10 µM drug); settings: 10 min, read-out: %NTCP activity
T1 sequence (Q14973 1-349): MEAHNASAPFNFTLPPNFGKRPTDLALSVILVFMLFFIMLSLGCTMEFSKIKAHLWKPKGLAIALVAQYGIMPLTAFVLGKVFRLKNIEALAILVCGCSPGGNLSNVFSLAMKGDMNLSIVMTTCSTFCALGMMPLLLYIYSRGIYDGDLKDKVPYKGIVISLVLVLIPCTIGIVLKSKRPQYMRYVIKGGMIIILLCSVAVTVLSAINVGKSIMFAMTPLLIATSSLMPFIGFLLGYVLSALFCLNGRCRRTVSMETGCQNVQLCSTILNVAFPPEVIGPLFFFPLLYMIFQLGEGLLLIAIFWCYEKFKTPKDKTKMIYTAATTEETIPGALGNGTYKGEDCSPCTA

Question: How did the remaining activity at 10 µM turn out when COc1ccc2c(c1)C(=O)N(CCc1ccc(S(=O)(=O)NC(=O)NC3CCCCC3)cc1)C(=O)C2(C)C [Gliquidone] was run?
Answer: 54.2%

Question: How did the remaining activity at 10 µM turn out when CN(C)CCC(c1ccc(Br)cc1)c1ccccn1 (centres unmarked) [Brompheniramine maleate] was run?
Answer: 37%

Question: Which remaining activity at 10 µM does the source give for CC(=O)OCC(=O)[C@@]12OC3(CCCC3)O[C@@H]1C[C@H]1[C@@H]3CCC4=CC(=O)C=C[C@]4(C)[C@@]3(F)[C@@H](O)C[C@@]12C [Amcinonide] here?
Answer: 54.6%

Question: CCN(CC)C(=O)Nc1ccc(OCC(O)CNC(C)(C)C)c(C(C)=O)c1 (centres unmarked) [Celiprolol HCl] was tested. Which remaining activity at 10 µM did it give?
Answer: 128%

Question: Which remaining activity at 10 µM does the source give for CCC1=C(C)CN(C(=O)NCCc2ccc(S(=O)(=O)NC(=O)N[C@H]3CC[C@H](C)CC3)cc2)C1=O [Glimepiride] here?
Answer: 72.2%

Question: How did the remaining activity at 10 µM turn out when CCn1cc(C(=O)O)c(=O)c2cc(F)c(N3CCNCC3)cc21 [Norfloxacin] was run?
Answer: 95.1%

Question: For Cc1cn[nH]c1 [Fomepizole], which remaining activity at 10 µM is on record?
Answer: 128%

Question: For O=C1c2ccccc2S(=O)(=O)N1CCCCN1CCN(c2ncccn2)CC1 [Ipsapirone], which remaining activity at 10 µM is on record?
Answer: 133%

Question: With NC(=O)c1cc[n+](CC2=C(C(=O)O)N3C(=O)[C@@H](NC(=O)[C@@H](c4ccccc4)S(=O)(=O)[O-])[C@H]3SC2)cc1 [Cefsulodin sodium salt] as the compound, how does the remaining activity at 10 µM read?
Answer: 91.7%

Question: For N=C(N)NC(=O)c1nc(Cl)c(N)nc1N [Amiloride hydrochloride dihydrate], which remaining activity at 10 µM is on record?
Answer: 109%

Question: With NC(=O)OCC(COC(N)=O)c1ccccc1 [Felbamate] as the compound, how does the remaining activity at 10 µM read?
Answer: 88.1%

Question: Which remaining activity at 10 µM does the source give for CCn1cc(C(=O)O)c(=O)c2cc3c(cc21)OCO3 [Oxolinic acid] here?
Answer: 110%

Question: How did the remaining activity at 10 µM turn out when CC(=O)N[C@@H](CC(C)C)C(=O)O [N-Acetyl-L-leucine] was run?
Answer: 91.4%

Question: Cc1ccc(C(=O)c2ccc(CC(=O)O)n2C)cc1 [Tolmetin sodium salt dihydrate] was tested. Which remaining activity at 10 µM did it give?
Answer: 119%

Question: Which remaining activity at 10 µM does the source give for O=C(Cn1ccnc1[N+](=O)[O-])NCCO [Etanidazole] here?
Answer: 118%

Question: For CCCN1C[C@H](CSC)C[C@@H]2c3cccc4[nH]cc(c34)C[C@H]21 [Pergolide mesylate], which remaining activity at 10 µM is on record?
Answer: 38.8%

Question: C1CCC(C(CC2CCCCN2)C2CCCCC2)CC1 (centres unmarked) [Perhexiline maleate] was tested. Which remaining activity at 10 µM did it give?
Answer: 28.4%

Question: Which remaining activity at 10 µM does the source give for Cc1ccccc1OCC(O)CO (centres unmarked) [Mephenesin] here?
Answer: 107%

Question: For Cc1ccc(S(=O)(=O)NC(=O)NN2CCCCCC2)cc1 [Tolazamide], which remaining activity at 10 µM is on record?
Answer: 52.7%

Question: How did the remaining activity at 10 µM turn out when CN(C)/N=N/c1[nH]cnc1C(N)=O [Dacarbazine] was run?
Answer: 112%

Question: Cn1c(=O)c2c(ncn2CC(=O)O)n(C)c1=O [Acefylline] was tested. Which remaining activity at 10 µM did it give?
Answer: 97.7%

Question: How did the remaining activity at 10 µM turn out when CC(=O)OCC(CCn1cnc2cnc(N)nc21)COC(C)=O [Famciclovir] was run?
Answer: 93.4%

Question: Cc1cc2c(s1)Nc1ccccc1N=C2N1CCN(C)CC1 [Olanzapine] was tested. Which remaining activity at 10 µM did it give?
Answer: 82.8%

same assay, conditions: Prestwick library screen, 10 µM drug, [14C]taurocholate uptake

Question: How did the “%NTCP activity” value turn out when O=C(O)/C=C\C(=O)O.O=C(O)/C=C\C(=O)O.c1ccc2nc(N3CCNCC3)ccc2c1 [Quipazine dimaleate salt] was run?
Answer: 121.476%

Question: Which “%NTCP activity” value does the source give for Nc1nc(O)c2[nH]nnc2n1 [Azaguanine-8] here?
Answer: 172.189%

same assay, conditions: Prestwick library screen, [14C]taurocholate uptake, 10 µM drug

Question: How did the “%NTCP activity” value turn out when NC12CC3CC(CC(C3)C1)C2.O=C(O)/C=C/C(=O)O [Adamantamine fumarate] was run?
Answer: 63.0024%

Question: With CN1CCC(=C2c3ccccc3CCc3sccc32)CC1.O=C(O)CC(O)C(=O)O [Pizotifen malate] as the compound, how does the “%NTCP activity” value read?
Answer: 78.3273%

same assay, conditions: screen, 10 µM drug, [14C]taurocholate uptake

Question: For CC(Oc1ccccc1)C(=O)N[C@@H]1C(=O)N2[C@@H]1SC(C)(C)[C@@H]2C(=O)[O-].[K+] (some centres unmarked) [Phenethicillin potassium salt], which “%NTCP activity” value is on record?
Answer: 63.7815%

molecular target: T1, human NTCP; assay: Screening fluorescent competitive Myrcludex B-FITC binding assay (96-well, 10 µM drug); settings: 0.5 h, read-out: %NTCP binding

Question: With COc1ccc2c(c1)C(=O)N(CCc1ccc(S(=O)(=O)NC(=O)NC3CCCCC3)cc1)C(=O)C2(C)C [Gliquidone] as the compound, how does the remaining activity at 10 µM read?
Answer: 114%

Question: Which remaining activity at 10 µM does the source give for CN(C)CCC(c1ccc(Br)cc1)c1ccccn1 (centres unmarked) [Brompheniramine maleate] here?
Answer: 70.7%

Question: CC(=O)OCC(=O)[C@@]12OC3(CCCC3)O[C@@H]1C[C@H]1[C@@H]3CCC4=CC(=O)C=C[C@]4(C)[C@@]3(F)[C@@H](O)C[C@@]12C [Amcinonide] was tested. Which remaining activity at 10 µM did it give?
Answer: 59.7%

Question: CCN(CC)C(=O)Nc1ccc(OCC(O)CNC(C)(C)C)c(C(C)=O)c1 (centres unmarked) [Celiprolol HCl] was tested. Which remaining activity at 10 µM did it give?
Answer: 92.1%

Question: For CCC1=C(C)CN(C(=O)NCCc2ccc(S(=O)(=O)NC(=O)N[C@H]3CC[C@H](C)CC3)cc2)C1=O [Glimepiride], which remaining activity at 10 µM is on record?
Answer: 82.3%

Question: Which remaining activity at 10 µM does the source give for CCn1cc(C(=O)O)c(=O)c2cc(F)c(N3CCNCC3)cc21 [Norfloxacin] here?
Answer: 87%

Question: How did the remaining activity at 10 µM turn out when Cc1cn[nH]c1 [Fomepizole] was run?
Answer: 88.5%

Question: Which remaining activity at 10 µM does the source give for O=C1c2ccccc2S(=O)(=O)N1CCCCN1CCN(c2ncccn2)CC1 [Ipsapirone] here?
Answer: 87.4%

Question: NC(=O)c1cc[n+](CC2=C(C(=O)O)N3C(=O)[C@@H](NC(=O)[C@@H](c4ccccc4)S(=O)(=O)[O-])[C@H]3SC2)cc1 [Cefsulodin sodium salt] was tested. Which remaining activity at 10 µM did it give?
Answer: 115%

Question: With N=C(N)NC(=O)c1nc(Cl)c(N)nc1N [Amiloride hydrochloride dihydrate] as the compound, how does the remaining activity at 10 µM read?
Answer: 123%

Question: For NC(=O)OCC(COC(N)=O)c1ccccc1 [Felbamate], which remaining activity at 10 µM is on record?
Answer: 61.2%

Question: With CC(=O)N[C@@H](CC(C)C)C(=O)O [N-Acetyl-L-leucine] as the compound, how does the remaining activity at 10 µM read?
Answer: 129%

Question: Cc1ccc(C(=O)c2ccc(CC(=O)O)n2C)cc1 [Tolmetin sodium salt dihydrate] was tested. Which remaining activity at 10 µM did it give?
Answer: 106%

Question: Which remaining activity at 10 µM does the source give for O=C(Cn1ccnc1[N+](=O)[O-])NCCO [Etanidazole] here?
Answer: 71.4%

Question: How did the remaining activity at 10 µM turn out when CCCN1C[C@H](CSC)C[C@@H]2c3cccc4[nH]cc(c34)C[C@H]21 [Pergolide mesylate] was run?
Answer: 76.6%

Question: Which remaining activity at 10 µM does the source give for C1CCC(C(CC2CCCCN2)C2CCCCC2)CC1 (centres unmarked) [Perhexiline maleate] here?
Answer: 49%

Question: For Cc1ccccc1OCC(O)CO (centres unmarked) [Mephenesin], which remaining activity at 10 µM is on record?
Answer: 79%

Question: With Cc1ccc(S(=O)(=O)NC(=O)NN2CCCCCC2)cc1 [Tolazamide] as the compound, how does the remaining activity at 10 µM read?
Answer: 79.8%

Question: CN(C)/N=N/c1[nH]cnc1C(N)=O [Dacarbazine] was tested. Which remaining activity at 10 µM did it give?
Answer: 88%

Question: Which remaining activity at 10 µM does the source give for Cn1c(=O)c2c(ncn2CC(=O)O)n(C)c1=O [Acefylline] here?
Answer: 87.6%

Question: How did the remaining activity at 10 µM turn out when CC(=O)OCC(CCn1cnc2cnc(N)nc21)COC(C)=O [Famciclovir] was run?
Answer: 119%

same assay, conditions: 0.5 h, read-out: %NTCP binding, Prestwick library screen, 10 µM drug, Myrcludex B-FITC binding

Question: For Cc1cc2c(s1)Nc1ccccc1N=C2N1CCN(C)CC1 [Olanzapine], which remaining activity at 10 µM is on record?
Answer: 101%

same assay, conditions: 0.5 h, read-out: %NTCP binding, Prestwick library screen, Myrcludex B-FITC binding, 10 µM drug

Question: For CCn1cc(C(=O)O)c(=O)c2cc3c(cc21)OCO3 [Oxolinic acid], which remaining activity at 10 µM is on record?
Answer: 85.7%

same assay, conditions: Prestwick library screen, 10 µM drug, Myrcludex B-FITC binding

Question: Which “%NTCP binding” value does the source give for O=C(O)/C=C\C(=O)O.O=C(O)/C=C\C(=O)O.c1ccc2nc(N3CCNCC3)ccc2c1 [Quipazine dimaleate salt] here?
Answer: 88.6853%

Question: How did the “%NTCP binding” value turn out when Nc1nc(O)c2[nH]nnc2n1 [Azaguanine-8] was run?
Answer: 121.626%

same assay, conditions: Prestwick library screen, Myrcludex B-FITC binding, 10 µM drug

Question: Which “%NTCP binding” value does the source give for NC12CC3CC(CC(C3)C1)C2.O=C(O)/C=C/C(=O)O [Adamantamine fumarate] here?
Answer: 65.3061%

Question: How did the “%NTCP binding” value turn out when CN1CCC(=C2c3ccccc3CCc3sccc32)CC1.O=C(O)CC(O)C(=O)O [Pizotifen malate] was run?
Answer: 102.931%

same assay, conditions: screen, 10 µM drug, Myrcludex B-FITC binding

Question: For CC(Oc1ccccc1)C(=O)N[C@@H]1C(=O)N2[C@@H]1SC(C)(C)[C@@H]2C(=O)[O-].[K+] (some centres unmarked) [Phenethicillin potassium salt], which “%NTCP binding” value is on record?
Answer: 93.2901%

Counter-ions that a name gives are not always drawn.
